Data: the supplement of paper PMC3334620
Whole data set: some 33,000 sequences, median “E-score (-0.5 to 0.5)” near -0.035, cut for the highest 2% near 0.35. The list shows a part of the results.

biological target: T1, Pdr3 (UniProt P33200); experiment: PBM E-score (8-mer binding enrichment) (E-score (-0.5 to 0.5)); higher = stronger / more preferred TF binding; most listed sequences are background and not binding sites; details: protein concentration: 200 nM; construct: GST-full length
T1 sequence: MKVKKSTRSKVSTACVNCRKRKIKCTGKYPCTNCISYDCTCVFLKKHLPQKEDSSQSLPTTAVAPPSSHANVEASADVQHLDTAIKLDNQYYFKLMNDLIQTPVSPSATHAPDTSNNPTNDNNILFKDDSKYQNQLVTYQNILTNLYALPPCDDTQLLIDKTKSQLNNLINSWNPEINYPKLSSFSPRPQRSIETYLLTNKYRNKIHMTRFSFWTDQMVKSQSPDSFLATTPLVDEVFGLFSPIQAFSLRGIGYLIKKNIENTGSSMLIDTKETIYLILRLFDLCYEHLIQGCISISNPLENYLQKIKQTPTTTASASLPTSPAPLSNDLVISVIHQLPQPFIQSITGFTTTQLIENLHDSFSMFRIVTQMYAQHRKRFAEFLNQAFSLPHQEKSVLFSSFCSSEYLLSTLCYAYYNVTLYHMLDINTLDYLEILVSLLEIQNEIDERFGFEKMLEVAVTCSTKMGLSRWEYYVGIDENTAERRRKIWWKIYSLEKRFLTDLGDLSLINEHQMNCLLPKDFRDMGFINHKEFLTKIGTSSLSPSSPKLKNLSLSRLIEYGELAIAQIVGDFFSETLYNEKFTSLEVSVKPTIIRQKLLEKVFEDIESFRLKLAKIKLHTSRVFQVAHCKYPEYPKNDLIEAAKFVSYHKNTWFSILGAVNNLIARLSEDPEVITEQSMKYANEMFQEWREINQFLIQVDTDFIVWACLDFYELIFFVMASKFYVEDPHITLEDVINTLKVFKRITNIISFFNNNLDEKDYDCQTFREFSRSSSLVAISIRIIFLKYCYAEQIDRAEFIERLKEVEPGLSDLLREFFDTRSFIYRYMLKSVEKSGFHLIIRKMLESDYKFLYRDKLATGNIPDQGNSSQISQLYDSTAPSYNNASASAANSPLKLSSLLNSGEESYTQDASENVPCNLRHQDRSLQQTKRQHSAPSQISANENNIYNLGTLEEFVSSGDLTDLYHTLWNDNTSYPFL
Method: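 Universal 'all 10-mer' protein binding microarrays (Agilent AMADID 015681) probed with GST-tagged S. cerevisiae TFs (full-length or DBD) made by in vitro transcription/translation (PURExpress), about 100-200 nM. Bound TF was detected with fluorescent anti-GST. Each ungapped 8-mer (which stands for itself and its reverse complement) is scored by the PBM enrichment score (E-score), a modified Wilcoxon-Mann-Whitney statistic from -0.5 to +0.5, computed with the Universal PBM Analysis Suite. Scale: above 0.35 generally sequence-specific binding.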

Row | Sequence | PBM E-score
1 | CGCCACTC | 0.114
2 | CAGATCAG | -0.00717
3 | CGACTATA | -0.153
4 | CTATCCAC | 0.0063
5 | AGCCCTAA | -0.0383
6 | ACACACGA | -0.0441
7 | AGAGAAAT | 0.00629
8 | AAACGTGG | -0.217
9 | GAGGTGCA | 0.0693
10 | AAAGCGCC | 0.0235
11 | CGTTCCTA | -0.0878
12 | AAATGAAT | -0.00342
13 | AGATAATA | 0.00528
14 | ATTACTTC | -0.139
15 | CCTTTGGA | -0.259
16 | CACTCACC | 0.0163
17 | AAGGCTCT | -0.173
18 | AGTCCCCC | -0.246
19 | AGAAGAAT | -0.015
20 | ATGTCCCC | 0.00109
21 | AGTCTCGG | 0.101
22 | ATGGCATA | -0.119
23 | AGCCCATG | -0.0226
24 | CTTATATC | 0.0726
25 | AGGATAGA | -0.225

Row | Sequence | PBM E-score
26 | AGATCCCC | 0.015
27 | CCTAATCA | 0.0425
28 | CTCTTAAA | -0.111
29 | GACATGCA | -0.163
30 | ATGGGTCG | 0.0962
31 | GTCGCATA | -0.0109
32 | CGACAGCA | 0.0259
33 | GCATGTGA | -0.013
34 | AGATACAG | -0.033
35 | GATCTCGA | 0.173
36 | ACTGGCAG | 0.055
37 | AGGCCTTC | -0.132
38 | CGACCTTC | 0.14
39 | ACCTGAGT | -0.0183
40 | ACTTTAAG | 0.0833
41 | CCTTTTGC | -0.126
42 | ACGCCTGC | -0.201
43 | GCATCCGC | 0.277
44 | AGGATCCC | 0.152
45 | GCTCCTAA | -0.188
46 | ACACGCAG | -0.196
47 | GGGATAAA | 0.202
48 | GGTCAAAC | 0.0507
49 | CCCTCGCA | 0.0287
50 | GCAACTGA | -0.0168

Row | Sequence | PBM E-score
51 | GTCGGAAC | 0.458
52 | GCTCAGAA | -0.0989
53 | CGGCGTAA | -0.0269
54 | CTCATACA | -0.0276
55 | AATTCCAA | -0.0365
56 | CTTCCAGA | -0.184
57 | AAACAGAA | -0.123
58 | CCTCACTA | -0.00189
59 | ATCGGCCC | 0.113
60 | TATTAGGA | -0.0995
61 | TAAGGCTA | -0.326
62 | AAGAGATT | 0.0875
63 | GCGACGAA | 0.0699
64 | ACGTAAAA | -0.153
65 | CCTTTAAA | -0.252
66 | AAGCAATG | 0.0274
67 | CCCTTGTC | -0.068
68 | GGAGATAA | 0.128
69 | ATAGTGCC | -0.00647
70 | CCGCACGC | 0.0615
71 | ACCTTACA | -0.145
72 | ATCGGAAT | 0.43
73 | CCTCTGGA | -0.00689
74 | ACATAAGG | 0.0436
75 | GCCTGTCA | -0.155

Row | Sequence | PBM E-score
76 | GGACGGTA | 0.118
77 | AGGACGAT | -0.0922
78 | AGGAACCG | 0.123
79 | CACGCGAC | -0.00486
80 | CGCGCATA | 0.136
81 | GGTTACTA | -0.0887
82 | AACACATC | 0.073
83 | ATCCGACG | 0.259
84 | AGAGCGCT | -0.163
85 | AACTGACG | -0.139
86 | CCGTTCGC | 0.15
87 | AGTTGAAG | -0.118
88 | CCGCAGCC | 0.238
89 | CACATAAC | -0.108
90 | ACACCCTA | -0.144
91 | AAGCAACC | 0.0343
92 | ACTTCCAT | 0.231
93 | GGGTCCTA | -0.103
94 | CATTGACC | -0.0462
95 | CGACAACA | 0.0728
96 | ATTTTCCA | 0.122
97 | GGTCGCAC | -0.00106
98 | CTTCATAA | 0.0224
99 | CCACTAGG | -0.207
100 | AATACCGC | 0.227

Row | Sequence | PBM E-score
101 | TGCCCGAA | 0.0367
102 | GAGAAGCC | 0.0255
103 | ACGCCTTA | -0.162
104 | GTATCCGA | 0.263
105 | CCACGGAA | 0.484
106 | GAAGTCGC | 0.0394
107 | GAGCTACC | -0.0837
108 | GCTGTGCC | 0.0656
109 | CCAATAAG | -0.255
110 | AGTTCGAA | 0.0494
111 | CTTCGGTA | -0.0957
112 | GCCTCTTA | -0.109
113 | GTAACAAA | -0.0631
114 | CACTGACC | 0.0213
115 | CTCTCAAC | -0.0299
116 | AGAGGATG | 0.0386
117 | AACACAGG | -0.125
118 | ACCTCACG | -0.0493
119 | GGTATCGA | 0.0822
120 | CTAATGCC | -0.0212
121 | CGTGAACC | 0.117
122 | ACCGTATC | 0.0549
123 | CATATAAG | -0.124
124 | CGATTACC | 0.191
125 | AGGCTAAG | -0.257

Row | Sequence | PBM E-score
126 | AGACAAAT | -0.196
127 | CTTCGCTA | -0.115
128 | TCAGAGAA | -0.289
129 | ATTAGTTA | 0.135
130 | CAGCCGAC | 0.00823
131 | TCCTTAGA | -0.274
132 | CACGTCCA | -0.297
133 | AGACCTGA | -0.0321
134 | ATCGCGCA | -0.0525
135 | GAACACAA | -0.0931
136 | GTCATCAC | -0.119
137 | GCCTCTCC | -0.0616
138 | AATATTAG | -0.051
139 | ATGCTGAA | -0.0375
140 | AAGCCATC | -0.0284
141 | ACAGTAGG | -0.203
142 | AGCGCACG | -0.0412
143 | ATTCAGTG | 0.0778
144 | AGACTATC | -0.225
145 | TAGGGAGA | 0.036
146 | AGGCGTGC | -0.104
147 | GAGGGAGC | -0.0208
148 | CCGGCGAG | 0.261
149 | AGGTTTAA | -0.135
150 | CGTCAGTA | -0.0798

Row | Sequence | PBM E-score
151 | AAAACGAG | -0.142
152 | ATCCCCTG | -0.191
153 | ACTGCTTG | -0.233
154 | ACTACAGA | 0.0418
155 | TGATATAA | -0.198
156 | GTTGCCCA | 0.0279
157 | AGCTTGTG | -0.0685
158 | GTGCTACA | -0.38
159 | GGATCCCC | 0.25
160 | CATCTGCA | -0.0227
161 | CTTGGCCC | -0.258
162 | ATACTCCC | 0.127
163 | AAGTAGTA | -0.0848
164 | CGCGAATC | 0.0604
165 | ACCAAGAA | 0.029
166 | TTCGAAAA | 0.0229
167 | ATTTAGCA | -0.0254
168 | TAGCAGAA | 0.018
169 | AGGATGAG | -0.125
170 | ACGTGGAA | -0.0114
171 | AGGGAGAC | -0.0867
172 | CCTCTGGC | -0.0661
